Results: PubChem BioAssay AID485281 (National Center for Advancing Translational Sciences (NCATS), 2010)
Hit rate of the full screen: of about 350,000 compounds, about 260 (0.074%) were called active. This list was built around the results that the source calls inconclusive (neither active nor inactive); the mix of calls is not that of the screen. The call rests on the fitted dose curve; in most records, active means well fitted inhibition curve with a large enough effect; inconclusive means small, poorly fitted or top-dose-only effect; inactive means no such curve, though single readings can be large or run the other way. Potencies beside an inconclusive call are fits to weak or partial responses and may not hold up.

Target: Ferritin light chain (Equus caballus) (UniProt P02791)
Sequence of UniProt P02791 (P02791 whole entry, looked up): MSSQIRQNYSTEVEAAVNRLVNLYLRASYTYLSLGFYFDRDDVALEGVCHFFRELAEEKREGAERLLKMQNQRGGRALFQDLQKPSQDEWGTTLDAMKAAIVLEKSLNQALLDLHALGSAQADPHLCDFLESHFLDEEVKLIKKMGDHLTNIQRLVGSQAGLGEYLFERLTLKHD
Test: qHTS Assay for Identification of Novel General Anesthetics; further: nearly all actives have a fitted effect of over 20% in size
Conditions: apoferritin/1-aminoanthracene competitive binding, fluorescence; activity change, negative = displacement: at 77.5 µM (top of the series)
How it was run: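 Read-out: endpoint 1-AMA fluorescence, excitation 380 nm and emission 535 nm, after compounds sit 10 min at room temperature with 10 uM horse-spleen apoferritin in 50% saturated 1-AMA/PBS. Values come from four-parameter Hill fits.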
On the % scale 0 is the no-effect control and ±100 the full control effect; potency means the concentration at half of the fitted maximal effect; tags describe the fitted curve by direction and shape.

Row | Structure (SMILES) | Potency | activity change, negative = displacement
1 | CCOCC(O)CSCc1ccc(Cl)cc1 (stereo not given) | inconclusive: 28.2 µM [inhibitor, partial curve] | –
2 | Cc1cc(=O)oc2cc(OCC(=O)NC3CCCC3)ccc12 | – | inactive: -12%
3 | C=CCSc1nnc(-c2c[nH]c3ccccc23)n1CC | inconclusive: 31.6 µM [inhibitor, partial curve] | –
4 | CCN(CC)S(=O)(=O)c1ccc(NN=C2CCN(C)CC2)c([N+](=O)[O-])c1 | inconclusive: 15.8 µM [inhibitor, partial curve] | –
5 | O=C1NC(=Nc2ccc3ccccc3c2)S/C1=C/c1ccco1 | inconclusive: 17.8 µM [inhibitor, partial curve] | –
6 | O=C(O)/C=C/C(=O)NNC(=O)c1cc(-c2ccccc2)n[nH]1 | inconclusive: 39.8 µM [inhibitor, single point] | –
7 | CCOC(=O)Cc1csc(NC(=O)c2cc3c(s2)CCCC3)n1 | inconclusive: 35.5 µM [inhibitor, single point] | –
8 | O=C(Nc1ccc2c(c1)oc1ccccc12)N1CCOCC1 | inconclusive: 39.8 µM [inhibitor, single point] | –
9 | O=C(CC1C(=O)NCCN1C(=S)Nc1ccccc1)Nc1ccc2c(c1)OCCO2 (stereo not given) | inconclusive: 56.2 µM [inhibitor, single point] | –
10 | CCc1ccc(C2c3[nH]c4ccccc4c3CCN2C(=O)CN2CCN(CC)CC2)cc1 (stereo not given) | – | inactive: -20.6%
11 | Cn1ncc2c(=O)n(CC(=O)NC34CC5CC(CC(C5)C3)C4)cnc21 | inconclusive: 15.8 µM [inhibitor, partial curve] | –
12 | COc1cccc(C(=O)N2c3nc(-c4ccco4)nn3C3(CCCCC3)[C@@H]3CCCC[C@@H]32)c1 | inconclusive: 1.26 µM [inhibitor, full curve, poor fit] | –
13 | CCc1nn(C(C)C(=O)N2CCN(c3cccc(C(F)(F)F)c3)CC2)c(=O)c2cc3occc3n12 (stereo not given) | inconclusive: 11.2 µM [inhibitor, full curve] | –
14 | C#CCOC(=O)Nc1ccc(=O)n(Cc2c(Cl)cccc2Cl)c1 | inconclusive: 44.7 µM [inhibitor, partial curve, poor fit] | –
15 | O=C1NN=C(c2ccc(Br)cc2)CC1c1ccc(Cl)cc1 (stereo not given) | – | inactive: -14.8%
16 | O=S(=O)(NCCNc1ncc(C(F)(F)F)cc1Cl)C(F)(F)F | inconclusive: 22.4 µM [inhibitor, partial curve] | –
17 | CC(C)NC(=O)c1[nH]nc2c1CCc1ccccc1-2 | – | inactive: 2.35%
18 | Cc1ccc(S(=O)(=O)ON2C(=O)c3cccc4cccc(c34)C2=O)cc1 | – | inactive: -11.5%
19 | Cc1ccc(CNC(=O)CC(C)S(=O)(=O)c2ccc3c(c2)NC(=O)C(C)S3)cc1 (stereo not given) | inconclusive: 28.2 µM [inhibitor, single point] | –
20 | COC(=O)c1cc(NS(=O)(=O)c2ccc(N3CCCCC3)c([N+](=O)[O-])c2)cc(C(=O)OC)c1 | inconclusive: 39.8 µM [inhibitor, partial curve] | –
21 | O=C(CCCc1cccs1)Nc1ccc2c(c1)OCO2 | inconclusive: 22.4 µM [inhibitor, partial curve] | –
22 | O=C(c1ccccc1)c1ccc(C(=O)N2CCN(c3ccc(F)cc3)CC2)o1 | inconclusive: 22.4 µM [inhibitor, partial curve] | –

Row | Structure (SMILES) | Potency | activity change, negative = displacement
23 | O=C(Cc1ccc(Cl)cc1Cl)Nc1cccc(S(=O)(=O)Nc2ccccc2F)c1 | inconclusive: 25.1 µM [inhibitor, partial curve] | –
24 | Cc1ccc(CNC(=O)c2sccc2-n2cccc2)cc1 | inconclusive: 35.5 µM [inhibitor, partial curve] | –
25 | Cc1cc(NC(=O)CSc2nc3ccc(Cl)cc3[nH]2)no1 | inconclusive: 25.1 µM [inhibitor, partial curve] | –
26 | O=C1C2C3C=CC(C3)C2C(=O)N1c1ccc(N2CCN(c3ccccn3)CC2)c([N+](=O)[O-])c1 (stereo not given) | inconclusive: 15.8 µM [inhibitor, partial curve] | –
27 | COc1ccc(S(=O)(=O)Nc2cc3c4c(oc3c3ccccc23)CC(C)(C)CC4=O)cc1 | inconclusive: 10 µM [inhibitor, partial curve] | –
28 | Cc1cc(-c2ccc(C)c(S(=O)(=O)NC3CCCCC3)c2)on1 | inconclusive: 56.2 µM [inhibitor, single point] | –
29 | CC1(C)C(=O)N(CC(=O)Nc2cccc(F)c2)c2ccc(S(=O)(=O)N3CCCCC3)cc21 | – | inactive: 4.55%
30 | CCOc1ccc(C(=O)c2ccc(OCC)c(N)c2)cc1N | inconclusive: 50.1 µM [inhibitor, single point] | –
31 | Cc1ccc(-c2cc(C(=O)NCc3ccco3)no2)cc1 | – | inactive: -0.357%
32 | COc1ccc(C(=O)CSc2nnc(CNc3ccc(F)cc3)o2)cc1 | inconclusive: 20 µM [inhibitor, partial curve] | –
33 | COCCCn1c(SCC(=O)OC2CCCCC2)nnc1-c1cccs1 | inconclusive: 22.4 µM [inhibitor, partial curve] | –
34 | Cc1nc(N)sc1N=Nc1ccc(Br)cc1 | inconclusive: 39.8 µM [inhibitor, partial curve] | –
35 | Cc1ccc(C(=O)N/C(=C/c2ccc(-c3cccc([N+](=O)[O-])c3)o2)C(=O)NCCCN(C)C)cc1 | inconclusive: 31.6 µM [inhibitor, partial curve] | –
36 | CCOc1ccc(-c2ncnn2-c2sc3c(c2C#N)CCCCC3)cc1 | inconclusive: 28.2 µM [inhibitor, partial curve] | –
37 | CC(NC(=O)Nc1nccs1)(C(F)(F)F)C(F)(F)F | inconclusive: 44.7 µM [inhibitor, partial curve] | –
38 | CCC1CN(C(=O)NCc2ccc(C)cc2)c2ccccc2O1 (stereo not given) | inconclusive: 4.47 µM [inhibitor, full curve] | –
39 | O=C(CN1c2ccccc2Sc2ccccc21)NNC(=S)Nc1ccc(Cl)cc1Cl | – | inactive: -3.04%
40 | Cc1cc(C)c(OCC(=O)N(Cc2ccco2)Cc2ccco2)c(C)c1 | inconclusive: 50.1 µM [inhibitor, single point] | –
41 | O=C(CSc1cccs1)Nc1ccc(Cl)cc1 | inconclusive: 31.6 µM [inhibitor, single point] | –
42 | CCC(C)(C)NC(=O)C(c1ccccc1F)N(Cc1ccco1)C(=O)c1csnn1 (stereo not given) | inconclusive: 44.7 µM [inhibitor, single point] | –
43 | Oc1ccc2ccccc2c1CN1CCOCC1 | – | inactive: -3.5%
44 | COc1cccc(NC(=O)CN2C(=O)NC(C)(CCC(C)C)C2=O)c1 (stereo not given) | inconclusive: 12.6 µM [inhibitor, partial curve] | –

Row | Structure (SMILES) | Potency | activity change, negative = displacement
45 | Cc1noc(/C=C/N(C)C)c1S(=O)(=O)N1CCCC(C(=O)NC2CCCCC2C)C1 (stereo not given) | inconclusive: 6.31 µM [inhibitor, single point] | –
46 | O=C(c1ccc(COc2ccccc2[N+](=O)[O-])o1)N1CCCCC1 | inconclusive: 17.8 µM [inhibitor, partial curve] | –
47 | CCc1cccc2c(C(=O)Cn3nnc(-c4ccc(OC)c(OC)c4)n3)c[nH]c12 | inconclusive: 12.6 µM [inhibitor, partial curve] | –
48 | CCOc1ccccc1Nc1nnc(SCc2ccc(C(=O)OC)o2)s1 | inconclusive: 15.8 µM [inhibitor, partial curve] | –
49 | CCCCOc1cccc(C(=O)Nc2cccc(-c3nc4ncccc4o3)c2C)c1 | inconclusive: 15.8 µM [inhibitor, partial curve] | –
50 | CC12CCC(C(=O)Nc3cccc4ccccc34)(C1Br)C2(C)C (stereo not given) | inconclusive: 10 µM [inhibitor, partial curve] | –
51 | COc1ccc(NCC(=O)N/N=C(\C)c2cc3ccccc3o2)cc1 | inconclusive: 28.2 µM [inhibitor, partial curve] | –
52 | COc1cc2oc(=O)cc(-c3ccc(-c4ccc(F)c(Cl)c4)cc3)c2c(OC)c1OC | inconclusive: 28.2 µM [inhibitor, partial curve] | –
53 | CC(C)CCn1cnc2c(NCc3ccccc3)ncnc21 | inconclusive: 15.8 µM [inhibitor, partial curve] | –
54 | Cc1ccc(/C=c2\sc3n(c2=O)CN(c2cccc(Br)c2)CN=3)o1 | inconclusive: 35.5 µM [inhibitor, partial curve] | –
55 | COCCNCC(=O)C12CC3CC(CC(C3)C1)C2 | inconclusive: 22.4 µM [inhibitor, partial curve] | –
56 | CC(C(=O)Nc1ccc(O)c(C(=O)O)c1)N1C(=O)/C(=C/c2cccs2)SC1=S (stereo not given) | inconclusive: 35.5 µM [inhibitor, single point] | –
57 | CCCCn1cc(S(=O)(=O)c2ccc(OC)cc2)c(=O)c2cc(CC)ccc21 | inconclusive: 14.1 µM [inhibitor, partial curve] | –
58 | CN(C)CC/C=C1/c2ccccc2Sc2c(O)cc(Cl)cc21 | – | inactive: 4.04%
59 | Cc1ccc(Cl)cc1NC(=O)Nc1nnc(N(C)Cc2ccccc2)s1 | – | inactive: 3.01%
60 | Cn1c(=O)c2c(SCC(=O)Nc3ccccc3C(F)(F)F)nc(C3CCCC3)nc2n(C)c1=O | – | inactive: -5.31%
61 | COc1ccc(/C(C)=N/NC(=O)CNC(=O)c2cccnc2)cc1 | inconclusive: 28.2 µM [inhibitor, partial curve] | –
62 | NC1=NC(=O)/C(=C/c2cn(Cc3ccccc3)c3ccccc23)S1 | inconclusive: 12.6 µM [inhibitor, partial curve] | –
63 | O=C1CC(NNc2ccccc2)C(=O)N1c1ccc(N2CCCCC2)cc1 (stereo not given) | inconclusive: 15.8 µM [inhibitor, partial curve] | –
64 | CC(=O)c1cccc(NC(=S)NC(=O)Cc2ccc(Cl)cc2)c1 | inconclusive: 50.1 µM [inhibitor, single point] | –
65 | CCn1c(COc2cccc3ccccc23)nnc1SCC(=O)OC1CCCCC1 | inconclusive: 8.91 µM [inhibitor, partial curve] | –
